Measured values as given in patent publication US20240141060A1, “DOSAGE REGIMES FOR ANTI-CD73 AND ANTI-ENTPD2 ANTIBODIES AND USES THEREOF” (NOVARTIS AG, priority 2021, published 2024).

T1: rat CD73/His (Rattus norvegicus, UniProt P21588)
T1 sequence (P21588 29-551): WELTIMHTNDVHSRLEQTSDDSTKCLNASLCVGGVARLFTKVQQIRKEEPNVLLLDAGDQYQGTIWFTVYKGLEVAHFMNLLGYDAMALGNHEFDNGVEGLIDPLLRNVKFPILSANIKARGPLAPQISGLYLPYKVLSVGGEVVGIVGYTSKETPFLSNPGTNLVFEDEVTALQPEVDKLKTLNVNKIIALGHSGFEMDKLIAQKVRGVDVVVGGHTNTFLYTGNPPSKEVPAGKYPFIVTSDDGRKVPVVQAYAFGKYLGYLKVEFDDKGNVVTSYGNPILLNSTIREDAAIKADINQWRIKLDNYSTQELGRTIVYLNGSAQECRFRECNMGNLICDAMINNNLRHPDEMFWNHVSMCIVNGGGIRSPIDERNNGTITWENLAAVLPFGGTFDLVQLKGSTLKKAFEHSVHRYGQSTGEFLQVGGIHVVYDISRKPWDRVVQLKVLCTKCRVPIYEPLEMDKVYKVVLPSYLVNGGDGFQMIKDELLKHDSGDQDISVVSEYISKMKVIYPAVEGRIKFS

T2: CD73 (Homo sapiens, UniProt P21589)
T2 construct: endogenous in cells; host or cells: CD8+ T cells (modelled)
T2 sequence (P21589 27-549): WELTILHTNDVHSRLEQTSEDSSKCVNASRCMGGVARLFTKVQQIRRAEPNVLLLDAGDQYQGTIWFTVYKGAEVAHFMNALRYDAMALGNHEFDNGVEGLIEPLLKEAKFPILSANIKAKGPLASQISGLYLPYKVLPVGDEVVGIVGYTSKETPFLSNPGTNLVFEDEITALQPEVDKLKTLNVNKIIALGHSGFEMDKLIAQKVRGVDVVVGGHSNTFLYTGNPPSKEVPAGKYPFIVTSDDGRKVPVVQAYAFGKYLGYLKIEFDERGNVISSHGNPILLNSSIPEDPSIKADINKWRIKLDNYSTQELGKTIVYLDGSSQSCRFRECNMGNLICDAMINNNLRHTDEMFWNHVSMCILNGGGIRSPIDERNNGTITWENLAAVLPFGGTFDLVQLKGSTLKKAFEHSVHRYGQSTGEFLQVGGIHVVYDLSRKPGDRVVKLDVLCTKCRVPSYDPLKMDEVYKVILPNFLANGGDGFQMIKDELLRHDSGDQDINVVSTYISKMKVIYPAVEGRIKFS

T3: mouse CD73/His (Mus musculus, UniProt Q61503)
T3 sequence (Q61503 29-551): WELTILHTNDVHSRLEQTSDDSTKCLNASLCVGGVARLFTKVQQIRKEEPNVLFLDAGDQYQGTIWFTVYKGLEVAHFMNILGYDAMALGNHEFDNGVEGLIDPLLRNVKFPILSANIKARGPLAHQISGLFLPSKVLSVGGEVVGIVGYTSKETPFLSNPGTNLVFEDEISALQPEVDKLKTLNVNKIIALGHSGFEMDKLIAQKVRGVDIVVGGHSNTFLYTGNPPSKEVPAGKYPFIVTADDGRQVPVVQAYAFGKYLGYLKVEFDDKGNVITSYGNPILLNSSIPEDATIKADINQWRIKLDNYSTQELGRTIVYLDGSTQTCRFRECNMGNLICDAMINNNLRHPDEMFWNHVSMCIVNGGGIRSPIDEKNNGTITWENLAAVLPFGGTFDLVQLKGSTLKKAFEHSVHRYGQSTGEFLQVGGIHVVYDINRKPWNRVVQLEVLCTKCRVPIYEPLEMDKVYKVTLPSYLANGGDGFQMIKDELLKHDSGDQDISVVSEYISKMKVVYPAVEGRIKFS

T4: recombinant mouse CD73 (Mus musculus, UniProt Q61503)
T4 construct: His; purchased R&D Systems 4488-EN
T4 sequence (Q61503 29-551): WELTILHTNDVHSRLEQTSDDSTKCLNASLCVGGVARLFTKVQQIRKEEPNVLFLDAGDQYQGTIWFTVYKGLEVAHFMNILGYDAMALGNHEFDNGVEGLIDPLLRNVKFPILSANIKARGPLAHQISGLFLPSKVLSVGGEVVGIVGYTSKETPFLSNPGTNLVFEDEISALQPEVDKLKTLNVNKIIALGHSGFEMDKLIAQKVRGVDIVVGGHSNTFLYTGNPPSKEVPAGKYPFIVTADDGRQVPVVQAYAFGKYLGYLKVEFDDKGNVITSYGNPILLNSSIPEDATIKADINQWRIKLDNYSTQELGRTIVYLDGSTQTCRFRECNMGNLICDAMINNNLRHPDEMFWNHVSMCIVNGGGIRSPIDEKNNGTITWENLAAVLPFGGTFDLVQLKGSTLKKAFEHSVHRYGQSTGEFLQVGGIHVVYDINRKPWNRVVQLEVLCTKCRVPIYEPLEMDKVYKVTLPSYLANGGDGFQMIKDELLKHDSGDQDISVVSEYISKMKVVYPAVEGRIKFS

T5: recombinant rat CD73 (Rattus norvegicus, UniProt P21588)
T5 construct: purchased Sino Biological 80375-R08H
T5 sequence (P21588 29-551): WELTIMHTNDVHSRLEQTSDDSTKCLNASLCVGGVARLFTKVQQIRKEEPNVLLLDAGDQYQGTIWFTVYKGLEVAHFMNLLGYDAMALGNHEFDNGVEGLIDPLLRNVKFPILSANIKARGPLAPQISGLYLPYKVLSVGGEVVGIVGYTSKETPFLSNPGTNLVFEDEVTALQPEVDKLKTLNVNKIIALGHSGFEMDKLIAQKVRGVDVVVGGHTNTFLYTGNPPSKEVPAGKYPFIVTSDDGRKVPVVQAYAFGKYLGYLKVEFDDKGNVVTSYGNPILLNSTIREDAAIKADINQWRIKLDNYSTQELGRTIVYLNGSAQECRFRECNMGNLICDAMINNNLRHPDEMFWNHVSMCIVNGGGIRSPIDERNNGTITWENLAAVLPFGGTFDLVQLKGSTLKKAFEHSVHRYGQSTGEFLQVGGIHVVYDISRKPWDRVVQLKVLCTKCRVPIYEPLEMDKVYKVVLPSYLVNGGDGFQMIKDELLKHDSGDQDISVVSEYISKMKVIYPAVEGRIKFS


Key:
rat CD73/His = target: T1, rat CD73/His; assay: Biacore SPR, anti-His antibody capture, rat CD73/His; format: binding
Protocol: (§1) The anti-His Ab was directly immobilized onto a CM5 chip surface by amine coupling. The His-tagged human CD73/His, cynomolgus monkey CD73/His, mouse CD73/His or rat CD73/His was flowed over and captured at a desired resonance unit (RU) for an Rmax of 20. Antibody analyte concentrations in serial dilutions of IgG or Fab were flowed over at 60 μL/min. The sensorgrams were analyzed using the manufacturer's software for a 1:1 binding model.

CD73 = target: T2, CD73; assay: CD73 target occupancy on human whole blood samples (ex vivo); format: cell-based
From the text: Isotype control treated samples mimicked blood that had zero target occupancy.

[1] = Phase I/Ib study: headache events and Cmax after first dose (logistic regression); format: in vivo, human
mouse CD73/His = target: T3, mouse CD73/His; assay: Biacore SPR, anti-His antibody capture, mouse CD73/His; format: binding
Protocol: as §1

recombinant mouse CD73 = target: T4, recombinant mouse CD73; assay: Biacore affinity of Fabs 350 and 373 (anti-human Fab capture), mouse CD73; format: binding; details: antigen mCD73, Biacore
From the text: (§2) Fabs of mAbs 350 and 373 were generated by engineering a stop between the two proline residues above the core hinge region of the heavy chain of 350 and 373. Both were expressed in Expi293F (ThermoFisher) cells and purified using CaptureSelect IgG CH1 Affinity resin (ThermoFisher).
(§3) Biacore was used to measure cross-species affinity for the Fab materials of mAbs 350 and 373. Proteins used were as follows: recombinant human CD73 (R&D Systems 5795-EN); recombinant cynomolgus monkey CD73 (Sino Biological 90912-C08H); recombinant mouse CD73 (R&D Systems 4488-EN); and recombinant rat CD73 (Sino Biological 80375-R08H). Anti-human Fab (GE Healthcare Life Sciences) was immobilized on all 4 flow cells (Fc) on a CM5 chip (GE). Fabs 350 and 373 were captured on Fc2 and Fc4, at ˜20 RU. 0.01 nM to 90 nM CD73 (3-fold dilution series) was flown over all 4 Fcs. All samples were diluted in running buffer HBS-EP+(pH 7.4, 0.01 M HEPES, 150 mM NaCl, 3 mM EDTA and 0.05% (v/v) P20).

recombinant rat CD73 = target: T5, recombinant rat CD73; assay: Biacore affinity of Fabs 350 and 373 (anti-human Fab capture), rat CD73; format: binding; details: antigen rCD73, Biacore
From the text: as §2, §3

[2] = Cmax after first dose below […]

Row | Molecule | Binding to rat CD73/His protein (rat CD73/His) | Geometric mean fluorescence intensity of biotinylated 373.A after pretreatment (CD73; unlabeled 373.A 0.17 ng/mL and 0.51 ng/mL, similar to isotype control, donor 1) [gMFI] | Geometric mean fluorescence intensity of biotinylated 373.A after pretreatment (CD73; unlabeled 373.A 0.17 ng/mL and 0.51 ng/mL, similar to isotype control, donor 2) [gMFI] | CD73 target occupancy (CD73; unlabeled 373.A 10 μg/mL to ~0.1 μg/mL) | Geometric mean fluorescence intensity of biotinylated 373.A after pretreatment (CD73; unlabeled 373.A 10 μg/mL to ~0.1 μg/mL, both donors) [gMFI] | Probability to experience Grade 2 or higher headache events [1, 2] | Probability to experience Grade 3 or higher headache events [1, 2] | Time to resolution of headaches ([1]; first dose effect) [h] | Patients with any grade headache who had the event after the first dose ([1]; patients) [%] | Binding to mouse CD73/His protein (mouse CD73/His) | Kd (M) (recombinant mouse CD73) | Kd (M) (recombinant rat CD73)
1 | 373.A: anti-CD73 antibody 373, IgG4 with S228P mutation; heavy chain SEQ ID NO: 46 wherein X is K (antibody) heavy: EVQLLESGGGLVQPGGSLRLSCAASGFTFHRYAMSWVRQAPGKGLEWVSAISGSGMNTYYADSVKGRFTISRDNSKNTLYLQMNSLRAEDTAVYYCARGGLYGSGSYLSDFDLWGRGTLVTVSSASTKGPSVFPLAPCSRSTSESTAALGCLVKDYFPEPVTVSWNSGALTSGVHTFPAVLQSSGLYSLSSVVTVPSSSLGTKTYTCNVDHKPSNTKVDKRV[letters of human IgG4 Fc with S228P (EU numbers) left out] light: EIVLTQSPATLSVSPGERATLSCRASQSVGSNLAWYQQKPGQAPRLLIYGASTRATGIPARFSGSGSGTEFTLTISSLQSEDFAVYYCQQHNAFPYTFGGGTKVEIKRTVAAPSVFIFPPSDEQLKSGTASVVCLLNNFYPREAKVQWKVDNALQSGNSQESVTEQDSKDSTYSLSSTLTLSKADYEKHKVYACEVTHQGLSSPVTKSFNRGEC | undetectable | ~1600 | ~2200 | full CD73 target occupancy | ~550 | below 25% | less than 10% | ≤ 48 | > 90 | undetectable |  | 
2 | 373.A Fab: Fab fragments of 373.A (antibody) VH: EVQLLESGGGLVQPGGSLRLSCAASGFTFHRYAMSWVRQAPGKGLEWVSAISGSGMNTYYADSVKGRFTISRDNSKNTLYLQMNSLRAEDTAVYYCARGGLYGSGSYLSDFDLWGRGTLVTVSS light: EIVLTQSPATLSVSPGERATLSCRASQSVGSNLAWYQQKPGQAPRLLIYGASTRATGIPARFSGSGSGTEFTLTISSLQSEDFAVYYCQQHNAFPYTFGGGTKVEIKRTVAAPSVFIFPPSDEQLKSGTASVVCLLNNFYPREAKVQWKVDNALQSGNSQESVTEQDSKDSTYSLSSTLTLSKADYEKHKVYACEVTHQGLSSPVTKSFNRGEC | undetectable |  |  |  |  |  |  |  |  | undetectable |  | 
3 | 373 Fab: Fab of mAb 373, stop engineered above the core hinge of the heavy chain (antibody) VH: EVQLLESGGGLVQPGGSLRLSCAASGFTFHRYAMSWVRQAPGKGLEWVSAISGSGMNTYYADSVKGRFTISRDNSKNTLYLQMNSLRAEDTAVYYCARGGLYGSGSYLSDFDLWGRGTLVTVSS light: EIVLTQSPATLSVSPGERATLSCRASQSVGSNLAWYQQKPGQAPRLLIYGASTRATGIPARFSGSGSGTEFTLTISSLQSEDFAVYYCQQHNAFPYTFGGGTKVEIKRTVAAPSVFIFPPSDEQLKSGTASVVCLLNNFYPREAKVQWKVDNALQSGNSQESVTEQDSKDSTYSLSSTLTLSKADYEKHKVYACEVTHQGLSSPVTKSFNRGEC |  |  |  |  |  |  |  |  |  |  | No Binding | No Binding
